# Hit rate of the full screen: of about 310,000 compounds, about 14,000 (4.5%) showed an effect of 50% or more. The effect is printed as a negative number. Some of the results follow.
# Target: human ether-à-go-go-related gene (hERG) potassium channel (human, UniProt Q12809)
# Assay: primary screen, population patch clamp on CHO cells stably expressing hERG
# 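Also: peak tail current of the secondary pulse compared with the same well before compound.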
# Chain of human ether-à-go-go-related gene (hERG) potassium channel (Q12809 whole entry, looked up): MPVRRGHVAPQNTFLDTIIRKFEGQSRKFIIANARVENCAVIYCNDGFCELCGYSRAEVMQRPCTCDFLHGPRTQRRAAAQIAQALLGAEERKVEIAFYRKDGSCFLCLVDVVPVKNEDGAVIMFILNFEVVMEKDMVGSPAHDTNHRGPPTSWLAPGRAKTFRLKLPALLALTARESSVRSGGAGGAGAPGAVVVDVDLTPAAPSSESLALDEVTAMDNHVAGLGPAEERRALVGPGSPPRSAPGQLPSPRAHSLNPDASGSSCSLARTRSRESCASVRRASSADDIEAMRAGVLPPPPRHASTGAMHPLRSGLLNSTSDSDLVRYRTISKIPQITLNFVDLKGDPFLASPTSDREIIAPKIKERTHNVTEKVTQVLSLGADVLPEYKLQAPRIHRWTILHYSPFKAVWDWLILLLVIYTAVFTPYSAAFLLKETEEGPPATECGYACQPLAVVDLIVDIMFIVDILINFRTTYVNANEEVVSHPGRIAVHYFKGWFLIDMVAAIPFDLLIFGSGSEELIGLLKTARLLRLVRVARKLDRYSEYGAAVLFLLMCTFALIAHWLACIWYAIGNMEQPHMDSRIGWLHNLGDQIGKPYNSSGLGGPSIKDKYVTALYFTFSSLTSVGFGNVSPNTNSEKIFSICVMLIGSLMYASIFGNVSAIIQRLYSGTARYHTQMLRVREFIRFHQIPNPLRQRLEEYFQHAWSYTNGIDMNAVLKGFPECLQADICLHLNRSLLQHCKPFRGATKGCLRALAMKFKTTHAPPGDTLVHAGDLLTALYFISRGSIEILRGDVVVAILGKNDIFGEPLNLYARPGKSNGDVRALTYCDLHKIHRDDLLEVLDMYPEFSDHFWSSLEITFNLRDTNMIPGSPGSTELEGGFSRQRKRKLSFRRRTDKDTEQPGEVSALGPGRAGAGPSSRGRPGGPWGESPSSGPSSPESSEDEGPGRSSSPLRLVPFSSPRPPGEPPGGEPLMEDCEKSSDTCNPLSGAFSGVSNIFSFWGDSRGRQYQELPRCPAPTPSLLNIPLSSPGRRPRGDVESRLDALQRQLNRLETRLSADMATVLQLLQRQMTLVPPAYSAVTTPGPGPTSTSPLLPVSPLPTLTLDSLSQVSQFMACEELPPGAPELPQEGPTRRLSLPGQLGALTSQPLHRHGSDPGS
row,Structure (SMILES),"hERG current change (%, negative = inhibition) at 10uM"
1,CCOC(=O)c1ccc(N2CN=C3SCC(=O)N3C2)cc1,-9.19%
2,Cc1ccc(NC(=O)OCc2cc(-c3ccccc3)on2)cc1,5.38%
3,Cc1cc2cc(CCNC(=O)c3cccs3)c(=O)[nH]c2cc1C,-8.88%
4,CC12CCC(C(=O)N3CCc4ccccc43)(CC1=O)C2(C)C (stereo not shown),0.635%
5,COc1ccc(NC(=O)Cc2c(F)cccc2Cl)cc1,28.2%
6,CCC(=NCc1ccc(Cl)c(Cl)c1)c1nc(-c2ccco2)oc1O,25.7%
7,Cc1cccc(-n2c(C)nc3cc(C(=O)NCc4ccc5c(c4)OCO5)ccc32)c1,-12.3%
8,O=C(CC(=O)c1ccccc1[N+](=O)[O-])c1ccccc1,11.3%
9,Cc1[nH]n(-c2ccccc2)c(=O)c1/C=N\NC(=O)C1COc2ccccc2O1 (stereo not shown),2.21%
10,O=C(NNc1cccc(Cl)n1)c1c(F)cccc1F,7.93%
11,CS(=O)(=O)N(CC(=O)N1CCCCC1)Cc1ccc(Cl)cc1,-2.18%
12,CCn1nc(C)c(/C=C/C(=O)Nc2ccc(C)cc2C)c1C,8.36%
13,CCOc1ccccc1NC(=O)NNS(=O)(=O)c1cc(OC)ccc1OC,8.06%
14,COC(=O)c1cc(NC(=O)CSC2=NCCS2)cc(C(=O)OC)c1,-3.86%
15,O=C(Nc1ccccc1C(=O)NCCCn1ccnc1)c1ccccc1,-16.5%
16,C=CCO/N=C/C1=C(O)C(C(=O)OC)C(C)(C)CC1=O (stereo not shown),5.14%
17,CC(=O)c1c(C)[nH]c(C(=O)CN2C(=O)NC(C)(c3ccc4c(c3)OCCO4)C2=O)c1C (stereo not shown),12.4%
18,CCOC(=O)c1c(NC(=O)Cn2cnc([N+](=O)[O-])n2)sc2c1CCC(C)C2 (stereo not shown),5.79%
19,CC(=O)c1c(C)[nH]c(C(=O)/C(C#N)=C/c2cccc(C)c2)c1C,19.7%
20,O=C(C1CCCN(c2ncnc3c2nc2n3CCCCC2)C1)N1CCN(c2ccc(F)cc2)CC1 (stereo not shown),-66.8%
21,COc1ccc(-c2nc3cc(NC(=S)NC(=O)Cc4ccccc4)ccc3o2)cc1,15.6%
22,COc1cc2c(cc1OC)C(C(=O)N(C)Cc1ccccc1)C(c1cccnc1)N(C)C2=O (stereo not shown),-1.27%
23,Cc1ccn2c(=O)c(NC(=O)c3cccs3)c(C)nc2c1,9.36%
24,COCCNC(=O)NC(=O)COC(=O)c1cc([N+](=O)[O-])ccc1Sc1nc(C)cs1,-6.78%
25,CCOC(=O)COc1c(/C=N\O)cc(Cl)cc1OC,-0.325%
26,CCOC(=O)Cc1csc(NC(=S)NC(=O)c2ccc([N+](=O)[O-])cc2)n1,13.8%
27,COc1ccc(/C=C2\NC(=S)N(CC3CCCO3)C2=O)c(OC)c1C (stereo not shown),-4.57%
28,Cn1c(SCC(=O)Nc2ccc(NC(=O)c3cccs3)cc2)nnc1-c1ccncc1,1.2%

row,Structure (SMILES),"hERG current change (%, negative = inhibition) at 10uM"
1,Cc1ccc(S(=O)(=O)C2CCCCC2=O)cc1 (stereo not shown),22.1%
2,Cc1ccc(NC2=C/C(=N/S(=O)(=O)c3cccs3)c3ccccc3C2=O)cc1C,11.2%
3,Cc1oc(-c2cccc(Cl)c2)nc1CN1CCC(C(=O)NC2CC2)CC1,16.2%
4,Cc1cccc(NC(=O)c2cc(-c3ccc(C)s3)nc3ccccc23)n1,5.03%
5,O=c1c2ccccc2nc(-c2ccccc2)n1Cc1ccccc1,4.3%
6,O=C(NC1CCCC1)c1n[nH]c2ccccc12,20%
7,CC1Cc2ccccc2N1C(=O)CN1C(=O)C(=O)N(Cc2ccccc2)C1=O (stereo not shown),5.26%
8,COc1ccc(-c2cc(C)no2)cc1S(=O)(=O)NCCCN1CCN(c2ccccc2)CC1,-68%
9,CN(Cc1ccccc1)C(=O)CN1C(=O)NC(C)(c2ccc(C(C)(C)C)cc2)C1=O (stereo not shown),-16.8%
10,CC(C)Cc1nnc(NC(=O)CCNC(=O)c2ccccc2Cl)s1,3.95%
11,CCN(CC)CCNC(=O)C(=O)Nc1cc2c3c(c1)CC(=O)N3CCC2,38.8%
12,CCOc1cc(N2CCOCC2)c(OCC)cc1NC(=O)COc1ccccc1[N+](=O)[O-],10.1%
13,Cc1nnc(NC(=O)CN2CCN(Cc3c(Cl)cccc3Cl)CC2)s1,9.97%
14,Cc1ccc(NC(=O)c2cc(S(=O)(=O)Nc3ccc(C)cc3)cs2)cc1,19.3%
15,COc1ccc(OC)c(NC(=O)CSc2nnc(Cc3cccn3C)n2CCc2ccccc2)c1,-23.3%
16,CCOC(=O)Nc1cc(OC)c(OC)cc1Cc1nccc2cc(OC)c(OC)cc12,-26.3%
17,Cc1ccc2nc(SCC(=O)NCc3ccc(S(N)(=O)=O)cc3)[nH]c2c1,14.2%
18,Cl.c1ccc2c(Nc3nc(N4CCOCC4)c4ccccc4n3)cccc2c1,-6.79%
19,O=C(C1CCC1)N1CCN(c2ccc(C(F)(F)F)cc2[N+](=O)[O-])CC1,-64%
20,Cc1cc(Cl)c(OCCCN2CCCCC2)c(Br)c1.O=C(O)C(=O)O,-68.1%
21,Cc1ccc(C(=O)COC(=O)CCC(=O)NC2CCCCC2)cc1[N+](=O)[O-],5.09%
22,COc1ccc(Cl)cc1NC(=S)N(CCCN1CCOCC1)Cc1cn(C)c2ccccc12,-3.33%
23,Cc1ccccc1NC(=O)c1ccc2c(c1)OCCO2,15.2%
24,FC(F)(F)c1nc(SCc2ccccc2)n[nH]1,16.1%
25,Cc1onc(-c2ccccc2)c1C(=O)NNC(=S)NC(=O)c1ccc2c(c1)OCO2,17.2%
26,COCCCNC(=O)CSc1nc2ccccc2c(=O)n1CCc1ccc(S(N)(=O)=O)cc1,-6.07%
27,Cc1ccccc1S(=O)(=O)N1[C@@H](c2cccc(Cl)c2)C(C(=O)O)=CC[C@H]1c1ccc(Cl)cc1,0.857%

# From paper PMC4336329 (PLoS ONE, 2015)
